Toxic doses and inconclusive results are not listed. For part of its entries the source gives two or more results. The list is limited to them. An entry can have further records. Results that share an entry are repeats in other runs, samples, wells, individuals or studies.
System: CAF1 mice, leiomyosarcoma No.2 ip, survival T/C%
Experiment: NCI In Vivo Anticancer Drug Screen. Data for tumor model Leiomyosarcoma (No. 2) (intraperitoneal) in CAF1 mice
Details: endpoint: mean survival time, schedule: Q01DX010 (ip), vehicle: saline, higher = longer survival
Description: The antitumor activity of compounds was measured in mice bearing transplantable tumors. Survival or tumor size were measured and the results are expressed as the measurement made in the treated group (T) divided by the measurement made in the vehicle treated control group (C). The tumor model used in this assay is Leiomyosarcoma (No. 2) (intraperitoneal) in CAF1 mice

## Nc1nc(=S)c2[nH]cnc2[nH]1
dose: 2.5 mg/kg/injection
  T/C: 92 % of control and 156 % of control

## N=[N+]=CC(=O)OCC(N)C(=O)O (stereo not drawn)
dose: 12.5 mg/kg/injection
  T/C: 100 % of control and 191 % of control

## N#[N+]c1cnc([O-])[nH]c1=O
dose: 1.25 mg/kg/injection
  T/C: 120 % of control and 177 % of control
dose: 5.0 mg/kg/injection
  T/C: 113 % of control and 195 % of control

## CC(=O)N(C)C
dose: 125.0 mg/kg/injection
  T/C: 103 % of control and 195 % of control

## O=c1[nH]c(=O)n(C2CC(O)C(CO)O2)cc1F (stereo not drawn)
dose: 20.0 mg/kg/injection
  T/C: 122 % of control and 169 % of control

## OCC1OC(n2cnc3c(=S)nc[nH]c32)C(O)C1O (stereo not drawn)
dose: 40.0 mg/kg/injection
  T/C: 111 % of control and 150 % of control

## CCCSc1ncnc2nc[nH]c12
dose: 62.5 mg/kg/injection
  T/C: 106 % of control and 182 % of control

Source: PubChem BioAssay AID238 (DTP/NCI, 2004)
